# Assay results taken from publication PMC3111228 (The Journal of neuroscience : the official journal of the …, 2011).
# B1: GST-mGluR5-Cprox with R892 exchanged (R892K) (domain or fragment)
# chain: not shown
# Molecular target: recombinant CaM (calmodulin) (UniProt P0DP23)
# Assay: pull-down
binder,measurement,value
B1,binding result,binds
